The whole screen tested about 48,000 compounds, of which about 120 (0.25%) were called active. Another 4% or so got no clear call; they are omitted. Calls follow the shape of the dose curve; as a rule, active = well fitted activation curve with a large enough effect; inconclusive = small, poorly fitted or top-dose-only effect, or another doubt; inactive = no such curve, though single readings can be large or run the other way. Some of the results follow.
Test: Primary qHTS for Identification of Small Molecule Activators of Huntingtin-Antisense Promoter Activity; also: nearly all actives have a fitted effect of over 55% in size
Conditions: HEK293 HTT-AS promoter firefly luciferase reporter, 24 h; series mostly up to 57.5 µM; activity change, positive = activation: at the top concentration
How it was run: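 Firefly luciferase readout (Dual-Glo, 10 min RT) after 24 h, 37 °C compound exposure (final up to 57.5 uM) of HEK293 reporter cells cultured 24 h beforehand; PTC124 at 50 uM final as control inhibitor; activity scaled vehicle 0%, zero RLU -100%.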

Compound	activity change, positive = activation
COc1ccc2cc([C@H](C)C(=O)O)ccc2c1	inactive: 3.96%
CC(C)c1ccc(NC(=O)CSC2=Nc3ccccc3C3=NC(CCC(=O)NC4CCCCC4)C(=O)N23)cc1 (stereo not given)	inactive: 6.92%
COC(=O)c1cc(Nc2nc3ccccc3nc2NS(=O)(=O)c2ccc(C)cc2)ccc1Cl	inactive: 19.7%
COc1ccc2c(c1)CCc1c(C(=O)Nc3cc(OC)c(Cl)cc3OC)noc1-2	inactive: -6.28%
Cc1ccc(CN(C(=O)c2ccc(C(C)(C)C)cc2)c2ccccn2)o1	inactive: -54.3%
Cc1c(N)cccc1C(F)(F)F	inactive: 0.294%
COc1ccccc1NC(=O)CSc1ncc2c(n1)-c1ccccc1N(Cc1ccccc1C)S2(=O)=O	inactive: 4.75%
CCOC(=O)C1CCCN(S(=O)(=O)c2cc(-c3cc(C)no3)ccc2OC)C1 (stereo not given)	inactive: -4.74%
CC(C)CC(=O)Nc1ccc2nc(SCC(=O)N3CCc4ccccc43)sc2c1	inactive: -43.1%
CCOc1ccccc1CNC(=O)c1sc2ncccc2c1-n1cccc1	inactive: -21.2%
CCOc1cc(C2c3c(-c4cc(C)ccc4O)n[nH]c3C(=O)N2CCCOC(C)C)ccc1O (stereo not given)	inactive: -30.4%
CCn1ccc2cc(S(=O)(=O)N3CCCN(C(=O)Nc4ccccc4F)CC3)ccc21	inactive: -19.1%
COc1cccc(Cn2c(SCC(=O)N3CCN(c4ccc(F)cc4)CC3)nc3ccccc32)c1	inactive: -23.1%
O=C(CSc1nnc(-c2ccc3c(c2)OCO3)o1)Oc1ccccc1	inactive: -31.3%
O=C(COC(=O)c1cc(-c2cccs2)nc2ccccc12)c1ccc(F)cc1	inactive: 33.9%
O=c1cc(-c2ccccc2)c2ccc3c(c2o1)CN(Cc1cccc(Cl)c1)CO3	inactive: -22.7%
Cc1ccccc1NC(=O)Cn1c(=O)n(CCCC(=O)NCc2ccc3c(c2)OCO3)c(=O)c2ccccc21	inactive: 1.4%
CCOc1ccc(CC(=O)Nc2cccc(-c3nc4cccnc4s3)c2C)cc1	inactive: -4.57%
COc1ccc2[nH]cc(CCN=C(NC(=O)c3ccccc3F)Nc3nc(C)cc(C)n3)c2c1	inactive: -33.3%
COc1ccc(Cl)cc1NC(=O)c1c(NCc2ccc(C)o2)sc2c1CCC(C)C2 (stereo not given)	inactive: -19.1%
Cc1ccc(-c2cn3cccnc3n2)cc1NC(=O)C(C)(C)Oc1ccc(Cl)cc1	inactive: -32.3%
C=C(C)CSc1nc2sc3c(c2c(=O)n1Cc1ccccc1)CC(C)(CC)OC3 (stereo not given)	inactive: -19.5%
Cc1c(C(=O)Nc2ccccc2Br)oc2ccc(S(=O)(=O)N3CCCCCC3)cc12	inactive: 7.49%
COc1cccc(NCc2cccn2-c2nnc(N3CCC(C)CC3)s2)c1	inactive: -60.6%

Compound	activity change, positive = activation
CCC(C)NC(=O)CN1C(=O)c2cccnc2Sc2ccccc21 (stereo not given)	inactive: -5.69%
C[C@]12CCC(=O)C=C1[C@@H]1C[C@@H]1[C@H]1[C@@H]3[C@@H]4C[C@@H]4[C@@]4(CCC(=O)O4)[C@@]3(C)CC[C@@H]12	inactive: -18.4%
Cc1cccc(Nc2ncnc3onc(-c4ccc(Cl)cc4)c23)c1C	inactive: -14.5%
Cc1ccc2oc3c(c(=O)c2c1)C(c1ccc(O)cc1)N(CCCN(C)C)C3=O (stereo not given)	inactive: -17.1%
Cc1ccc(-n2c(=O)c3cccnc3n2CC(=O)NCc2ccc(Cl)cc2)cc1	inactive: -36.1%
COC(=O)c1ccc([C@@H]2Nc3c(OC)ccc(C)c3[C@@H]3C=CC[C@@H]32)cc1	inactive: -15.1%
Nc1c(C(=O)Nc2ccc(F)cc2)sc2nc(-c3cccs3)cc(C(F)(F)F)c12	inactive: -17.5%
Cc1cc(F)ccc1NC(=O)C(c1ccccc1)N1Cc2ccccc2C1=O (stereo not given)	inactive: -16.9%
COc1ccc(C(=O)Nc2cccc(C(=O)OCc3cc(=O)n4nc(C5CC5)sc4n3)c2)cc1	inactive: -4.32%
CC1N=C2c3ccccc3N=C(SCC(=O)NCCc3ccc(Cl)cc3)N2C1=O (stereo not given)	inactive: 22.2%
CCn1c2ccccc2c2cc(CN3CCN(Cc4ccc(Br)cc4)CC3)ccc21	inactive: -41.3%
O=C(CCS(=O)(=O)c1cc2c(cc1Cl)NC(=O)CO2)NCc1ccc(Cl)cc1	inactive: -22.8%
O=[N+]([O-])c1ccc(Nc2ccccc2-c2ccccc2)c2nonc12	inactive: -49%
CNC(=O)C1CCC(Cn2c(=O)c3sccc3n(Cc3cc(C)ccc3C)c2=O)CC1 (stereo not given)	inactive: -4.75%
COc1ccc(N2C(=O)NC(NS(=O)(=O)c3ccc(Cl)cc3)(C(F)(F)F)C2=O)cc1 (stereo not given)	inactive: -10.9%
Cc1ccccc1-c1nc(CN2CCCC(C(=O)NCc3ccc(Cl)cc3)C2)c(C)o1 (stereo not given)	inactive: -15.4%
CCc1ccc(S(=O)(=O)c2cn(CC(=O)Nc3ccc(F)c(Cl)c3)c3ccccc3c2=O)cc1	inactive: -28.9%
CCN(C(=O)Cn1c(C(=O)OC)cc2sc(Cl)cc21)c1cccc(C)c1	inactive: 4.57%
COc1ccc([N+](=O)[O-])cc1NC(c1nnc(-c2ccccc2)o1)c1ccccc1F (stereo not given)	inactive: -7.92%
CSc1nc(NCCOC(C)=O)c(C#N)c(-c2ccc(C(C)(C)C)cc2)n1	inactive: -29.6%
COc1ccc(C2C(=O)N(C3CCCCC3)CC(=O)N2CCc2ccc(C)cc2)cc1OC (stereo not given)	inactive: -13.1%
Cc1ccc2nc(CN3CCN(C(=O)Nc4ccc(F)cc4)CC3)oc2c1	inactive: -25.1%
NC(CS)C(=O)O (stereo not given)	inactive: -0.0512%
Cc1ccc(CN2C(=O)C(O)(c3c(C)[nH]c4ccccc34)c3ccccc32)cc1 (stereo not given)	inactive: -19.9%

Compound	activity change, positive = activation
COc1ccc(NC(=O)C2CCC(CNS(=O)(=O)c3cccc4nsnc34)CC2)cc1OC (stereo not given)	inactive: -20.2%
COCCNC(=O)CCCn1c(SCC(=O)Nc2ccc(F)cc2)nc2c(sc3ccccc32)c1=O	inactive: -33.4%
COc1ccc(C(=O)n2nc(N)c3cc4ccc(C)cc4nc32)cc1OC	inactive: -4.75%
CCOC(=O)Cn1c(=N)n(Cc2ccc(C(C)(C)C)cc2)c2ccccc21	inactive: -43.7%
COC(=O)c1cc2oc(C)cc2n1Cc1ccccc1Cl	inactive: -10.6%
COc1ccccc1C1NC(=O)c2n[nH]c(-c3cccs3)c21 (stereo not given)	inactive: -33.4%
CC1CCN(C(=O)c2c(NC(=O)c3ccccc3Cl)sc3c2CCC(C(C)(C)C)C3)CC1 (stereo not given)	inactive: -8.19%
Cc1cc2nc(-c3ccc(OCc4ccccc4C)cc3)cc(C(F)(F)F)n2n1	inactive: -4.38%
Cc1cc(C)cc(-n2ccnc2SCC(=O)Nc2cccc3ccccc23)c1	inactive: -30.4%
CCc1ccc(OCC(=O)Nc2ccc3c(c2)c2ccccc2n3CC)cc1	inactive: -30.4%
N#Cc1c[nH]n2c(NC3CCCCC3)c(-c3ccc(F)cc3)nc12	inactive: 14.8%
Cc1cccc(-n2ccnc2SCC(=O)Nc2cccc3ccccc23)c1	inactive: -25%
Cc1cc(C)cc(OCCSc2nc3ccc(NC(=O)c4ccc5c(c4)OCO5)cc3s2)c1	inactive: -23.1%
CCc1ccc2[nH]cc(S(=O)(=O)c3ccc(C(C)C)cc3)c(=O)c2c1	inactive: -32.1%
Oc1ccccc1-c1nc(-c2cccs2)c(-c2cccs2)[nH]1	inactive: -36.5%
O=C(COc1ccccc1Cl)Nc1ccc(OCc2cc(=O)n3ccsc3n2)cc1	inactive: -8.14%
COc1ccc(NC(=O)CCc2c(C)nc3c(c2C)c(=O)n(C)c(=O)n3C)c(OC)c1	inactive: -13.2%
CCc1ccccc1NC(=O)Cn1nc2c3cc(F)ccc3n(Cc3cccc(C)c3)cc-2c1=O	inactive: -16.1%
O=C(COc1ccccc1F)Nc1ccc2nc(SCC(=O)N3CCc4ccccc43)sc2c1	inactive: -31.9%
CCOC(=O)c1c(NC(=O)c2cc(-c3ccccc3OC)on2)sc(C)c1C	inactive: -14%
CCOc1ccc(-c2cn3c(n2)sc2cc(C(=O)NCCCN4CCCCCC4)ccc23)cc1	inactive: 6.25%
CCc1ccc2oc(C(=O)NCC(c3ccc(OC)cc3)N3CCCCC3)c(C)c2c1 (stereo not given)	inactive: 13.8%
Cc1cc(NC(=O)C2CCN(S(=O)(=O)c3c(C)noc3C)CC2)ccc1Br	inactive: -26%
Cc1cc(C)c2nc(N(Cc3cccnc3)C(=O)CCS(=O)(=O)c3ccccc3)sc2c1	inactive: -4.35%

Compound	activity change, positive = activation
CC1=C(C(=O)Nc2cccnc2)C(c2ccc(F)cc2)n2nc(-c3cccc(C)c3)nc2N1 (stereo not given)	inactive: -22.5%
COc1ccccc1CNC(=O)C1(c2cccs2)CCOCC1	inactive: -7.49%
COc1ccc(-c2nc3nc(C)cc(C)n3c2Nc2c(C)cccc2C)cc1	inactive: -13.5%
COc1ccc(CNC(=O)C2CCCN(S(=O)(=O)N(C)c3ccc(F)cc3)C2)cc1OC (stereo not given)	inactive: -85.3%
O=C(OCc1cc(=O)n2nc(-c3cccs3)sc2n1)c1cccc(Cl)c1	inactive: 10.4%
OC1CCC(Nc2ncc3nc(Nc4c(F)cc(F)cc4F)n([C@@H]4CCOC4)c3n2)CC1 (stereo not given in full)	inactive: -4.31%
Cc1ccc(C)c(Cn2c(=O)n(CC3CCC(C(=O)N4CCOCC4)CC3)c(=O)c3sccc32)c1 (stereo not given)	inactive: -11.3%
Cc1ccc(C)c(CNS(=O)(=O)c2ccc3c(c2)C(C)(C)C(=O)N3C)c1	inactive: -20.2%
COc1ccc2c(c1)c1c(c(=O)n(-c3ccc(C)cc3)c(=O)n1CC(=O)c1ccc(Cl)cc1)n2C	inactive: -4.95%
COc1ccc(NC(=O)Cn2cc(S(=O)(=O)N3CCC(C)CC3)c3ccccc3c2=O)cc1Cl	inactive: -17.7%
CC1CCN(S(=O)(=O)c2ccc3c(c2)N(CC(=O)NCCN(C)C)C(=O)CO3)CC1	inactive: -10.4%
Cc1ccc(C)c(N2CCN(C(=O)c3ccc(-c4nc(COc5ccccc5)c(C)o4)cc3)CC2)c1	inactive: -16% [at 11.5 µM, percent change from vehicle, -100% = no light]
CCOc1ccc(NC(=O)c2ccc3[nH]c(C)cc(=O)c3c2)cc1	inactive: -8.75%
CCOc1ccc(C(=O)OCCN(CC)CC)cc1	inactive: -8.51%
COc1ccc2c(CNCCc3ccccc3C)c(C(=O)O)n(Cc3ccccc3C)c2c1	inactive: -13.6%
CCOC(=O)c1c(S(=O)(=O)N2CCCC(C(=O)NCc3ccc(F)cc3)C2)c(C)n(CC)c1C (stereo not given)	inactive: -13%
COc1ccc(CN(Cc2ccco2)C(=O)COc2ccc(Cl)cc2C)cc1	inactive: -16.9%
CC(=O)N1CCc2c(sc3c2c(=O)n(-c2cccc(Cl)c2C)c(=O)n3Cc2ccccc2C)C1	inactive: -40.8%
Cc1ccc2c(c1)cc1c(=O)n(CC(=O)N(C)c3ccccc3)nc(C)n12	inactive: -11.8%
Cc1ccc(NC(=O)CSc2nc3nc(C)c(Cc4ccccc4)c(C)n3n2)cc1	inactive: -15.6%
CC(C)CNC(=O)N1CCN(S(=O)(=O)c2ccc3c(ccn3C)c2)CC1	inactive: -10%
CCCCCCCCCCCCCCCC(=O)O	inactive: 1.51%
Cc1ccc2oc3c(c(=O)c2c1)C(c1ccccc1F)N(c1ccccn1)C3=O (stereo not given)	inactive: -16.5%

Source: PubChem BioAssay AID1508624 (National Center for Advancing Translational Sciences (NCATS), 2021)
